# In the supplement of paper PMC8728848:
# This is one part of the list.
# What was measured:
# Test in all cases: glycan array binding signal (z-score within array); higher = stronger binding
# Settings in all cases: glycan notation: IUPAC condensed, linker removed
# [1] = target: Gal(b1-3)GlcNAc(b1-6)[Gal(b1-3)]GalNAc
# How it was run: (§1)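 Negative Z-scores can be read as non-binding. The Z-score is calculated within each array and then averaged across arrays of one protein sequence at different concentrations or buffers and across linkers. Arrays, 3228 in all, were curated from the Consortium for Functional Glycomics database and kept only where the protein sequence was available.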
# [2] = target: Gal(b1-3)GlcNAc6S
# How it was run: as §1
# [3] = target: Gal(b1-3)[Fuc(a1-4)]GlcNAc
# How it was run: as §1
# [4] = target: Gal(b1-3)[Fuc(a1-4)]GlcNAc(b1-2)Man
# How it was run: as §1
# [5] = target: Gal(b1-3)[Fuc(a1-4)]GlcNAc(b1-2)Man(a1-3)[Gal(b1-3)[Fuc(a1-4)]GlcNAc(b1-2)Man(a1-6)]Man(b1-4)GlcNAc(b1-4)[Fuc(a1-6)]GlcNAc
# How it was run: as §1
# [6] = target: Gal(b1-3)[Fuc(a1-4)]GlcNAc(b1-3)Gal(b1-3)[Fuc(a1-4)]GlcNAc
# How it was run: as §1
# [7] = target: Gal(b1-3)[Fuc(a1-4)]GlcNAc(b1-3)Gal(b1-4)[Fuc(a1-3)]GlcNAc
# How it was run: as §1
# [8] = target: Gal(b1-3)[Fuc(a1-4)]GlcNAc(b1-6)GalNAc
# How it was run: as §1
# [9] = target: Gal(b1-3)[GlcNAc(b1-6)]GalNAc
# How it was run: as §1
# [10] = target: Gal(b1-3)[Neu5Ac(a2-6)]GalNAc
# How it was run: as §1
# [11] = target: Gal(b1-3)[Neu5Ac(a2-6)]GlcNAc(b1-4)Gal(b1-4)Glc
# How it was run: as §1
# [12] = target: Gal(b1-3)[Neu5Ac(b2-6)]GalNAc
# How it was run: as §1
# [13] = target: Gal(b1-4)Gal
# How it was run: as §1
# [14] = target: Gal(b1-4)GalNAc(a1-3)[Fuc(a1-2)]Gal(b1-4)GlcNAc
# How it was run: as §1
# [15] = target: Gal(b1-4)GalNAc(b1-3)[Fuc(a1-2)]Gal(b1-4)GlcNAc
# How it was run: as §1
# [16] = target: Gal(b1-4)Glc
# How it was run: as §1
# [17] = target: Gal(b1-4)Glc6S
# How it was run: as §1
# [18] = target: Gal(b1-4)GlcNAc
# How it was run: as §1
# [19] = target: Gal(b1-4)GlcNAc(a1-6)Gal(b1-4)GlcNAc
# How it was run: as §1
# [20] = target: Gal(b1-4)GlcNAc(b1-2)Man
# How it was run: as §1
# [21] = target: Gal(b1-4)GlcNAc(b1-2)Man(a1-3)Man(b1-4)GlcNAc(b1-4)GlcNAc
# How it was run: as §1
# [22] = target: Gal(b1-4)GlcNAc(b1-2)Man(a1-3)[Gal(b1-4)GlcNAc(b1-2)Man(a1-6)]Man(b1-4)GlcNAc(b1-4)GlcNAc
# How it was run: as §1
# [23] = target: Gal(b1-4)GlcNAc(b1-2)Man(a1-3)[Gal(b1-4)GlcNAc(b1-2)Man(a1-6)]Man(b1-4)GlcNAc(b1-4)[Fuc(a1-6)]GlcNAc
# How it was run: as §1
# [24] = target: Gal(b1-4)GlcNAc(b1-2)Man(a1-3)[Gal(b1-4)GlcNAc(b1-2)Man(a1-6)][Gal(b1-4)GlcNAc(b1-4)]Man(b1-4)GlcNAc(b1-4)[Fuc(a1-6)]GlcNAc
# How it was run: as §1
# [25] = target: Gal(b1-4)GlcNAc(b1-2)Man(a1-3)[Gal(b1-4)GlcNAc(b1-2)Man(a1-6)][GlcNAc(b1-4)]Man(b1-4)GlcNAc(b1-4)[Fuc(a1-6)]GlcNAc
# How it was run: as §1
# [26] = target: Gal(b1-4)GlcNAc(b1-2)Man(a1-3)[GlcNAc(b1-2)Man(a1-6)]Man(b1-4)GlcNAc(b1-4)GlcNAc
# How it was run: as §1
# [27] = target: Gal(b1-4)GlcNAc(b1-2)Man(a1-3)[GlcNAc(b1-4)][Gal(b1-4)GlcNAc(b1-2)Man(a1-6)]Man(b1-4)GlcNAc(b1-4)GlcNAc
# How it was run: as §1
# [28] = target: Gal(b1-4)GlcNAc(b1-2)Man(a1-3)[Man(a1-6)]Man(b1-4)GlcNAc(b1-4)GlcNAc
# How it was run: as §1
# [29] = target: Gal(b1-4)GlcNAc(b1-2)Man(a1-6)Man(b1-4)GlcNAc(b1-4)GlcNAc
# How it was run: as §1
# [30] = target: Gal(b1-4)GlcNAc(b1-2)Man(a1-6)[GlcNAc(b1-2)Man(a1-3)]Man(b1-4)GlcNAc(b1-4)GlcNAc
# How it was run: as §1
# [31] = target: Gal(b1-4)GlcNAc(b1-2)Man(a1-6)[Man(a1-3)]Man(b1-4)GlcNAc(b1-4)GlcNAc
# How it was run: as §1
# [32] = target: Gal(b1-4)GlcNAc(b1-2)[Gal(b1-4)GlcNAc(b1-4)]Man(a1-3)[Gal(b1-4)GlcNAc(b1-2)Man(a1-6)]Man(b1-4)GlcNAc(b1-4)GlcNAc
# How it was run: as §1
# [33] = target: Gal(b1-4)GlcNAc(b1-2)[Gal(b1-4)GlcNAc(b1-4)]Man(a1-3)[Gal(b1-4)GlcNAc(b1-2)[Gal(b1-4)GlcNAc(b1-6)]Man(a1-6)]Man(b1-4)GlcNAc(b1-4)GlcNAc
# How it was run: as §1
# [34] = target: Gal(b1-4)GlcNAc(b1-2)[Gal(b1-4)GlcNAc(b1-4)]Man(a1-3)[GlcNAc(b1-4)][Gal(b1-4)GlcNAc(b1-2)Man(a1-6)]Man(b1-4)GlcNAc(b1-4)GlcNAc
# How it was run: as §1
# [35] = target: Gal(b1-4)GlcNAc(b1-2)[Gal(b1-4)GlcNAc(b1-4)]Man(a1-3)[GlcNAc(b1-4)][Gal(b1-4)GlcNAc(b1-2)[Gal(b1-4)GlcNAc(b1-6)]Man(a1-6)]Man(b1-4)GlcNAc(b1-4)GlcNAc
# How it was run: as §1
# [36] = target: Gal(b1-4)GlcNAc(b1-2)[Gal(b1-4)GlcNAc(b1-6)]Man(a1-6)[Gal(b1-4)GlcNAc(b1-2)Man(a1-3)]Man(b1-4)GlcNAc(b1-4)GlcNAc
# How it was run: as §1
# [37] = target: Gal(b1-4)GlcNAc(b1-2)[Gal(b1-4)GlcNAc(b1-6)]Man(a1-6)[Gal(b1-4)GlcNAc(b1-2)Man(a1-3)]Man(b1-4)GlcNAc(b1-4)[Fuc(a1-6)]GlcNAc
# How it was run: as §1
# [38] = target: Gal(b1-4)GlcNAc(b1-2)[Gal(b1-4)GlcNAc(b1-6)]Man(a1-6)[GlcNAc(b1-4)][Gal(b1-4)GlcNAc(b1-2)Man(a1-3)]Man(b1-4)GlcNAc(b1-4)GlcNAc
# How it was run: as §1
# [39] = target: Gal(b1-4)GlcNAc(b1-2)[Gal(b1-4)GlcNAc(b1-6)]Man(a1-6)[GlcNAc(b1-4)][Gal(b1-4)GlcNAc(b1-2)[Gal(b1-4)GlcNAc(b1-4)]Man(a1-3)]Man(b1-4)GlcNAc(b1-4)[Fuc(a1-6)]GlcNAc
# How it was run: as §1
# [40] = target: Gal(b1-4)GlcNAc(b1-3)Gal(b1-3)GalNAc
# How it was run: as §1
# [41] = target: Gal(b1-4)GlcNAc(b1-3)Gal(b1-3)GlcNAc
# How it was run: as §1
# [42] = target: Gal(b1-4)GlcNAc(b1-3)Gal(b1-4)Glc
# How it was run: as §1
# [43] = target: Gal(b1-4)GlcNAc(b1-3)Gal(b1-4)GlcNAc
# How it was run: as §1
# [44] = target: Gal(b1-4)GlcNAc(b1-3)Gal(b1-4)GlcNAc(b1-2)Man(a1-3)[Gal(b1-4)GlcNAc(b1-3)Gal(b1-4)GlcNAc(b1-2)Man(a1-6)]Man(b1-4)GlcNAc(b1-4)GlcNAc
# How it was run: as §1
# [45] = target: Gal(b1-4)GlcNAc(b1-3)Gal(b1-4)GlcNAc(b1-2)Man(a1-3)[Gal(b1-4)GlcNAc(b1-3)Gal(b1-4)GlcNAc(b1-2)Man(a1-6)]Man(b1-4)GlcNAc(b1-4)[Fuc(a1-6)]GlcNAc
# How it was run: as §1
binder,measurement,setting,value
LecB PA14 (Pseudomonas aeruginosa) (protein) MATQGVFTLPANTQFGVTAFANSAGTQTVNVQVNNETVATFTGQSTNNAIIGSKVLNSGGGGKVQILVSVNGRSSDLVSAQVILANELNFALVGSEDSTDNDYNDAVVVINWPLG,glycan array binding signal (z-score),[1],-0.632
same,glycan array binding signal (z-score),[2],-0.67
same,glycan array binding signal (z-score),[3],0.551
same,glycan array binding signal (z-score),[4],0.531
same,glycan array binding signal (z-score),[5],-0.16
same,glycan array binding signal (z-score),[6],1.4
same,glycan array binding signal (z-score),[7],0.012
same,glycan array binding signal (z-score),[8],1.1
same,glycan array binding signal (z-score),[9],-0.021
same,glycan array binding signal (z-score),[10],-0.431
same,glycan array binding signal (z-score),[11],-0.183
same,glycan array binding signal (z-score),[12],-0.435
same,glycan array binding signal (z-score),[13],0.891
same,glycan array binding signal (z-score),[14],0.342
same,glycan array binding signal (z-score),[15],-0.285
same,glycan array binding signal (z-score),[16],-0.334
same,glycan array binding signal (z-score),[17],0.179
same,glycan array binding signal (z-score),[18],-0.238
same,glycan array binding signal (z-score),[19],-0.201
same,glycan array binding signal (z-score),[20],-0.837
same,glycan array binding signal (z-score),[21],0.02
same,glycan array binding signal (z-score),[22],-0.479
same,glycan array binding signal (z-score),[23],-0.349
same,glycan array binding signal (z-score),[24],0.6
same,glycan array binding signal (z-score),[25],0.268
same,glycan array binding signal (z-score),[26],0.016
same,glycan array binding signal (z-score),[27],-0.531
same,glycan array binding signal (z-score),[28],-0.394
same,glycan array binding signal (z-score),[29],-0.087
same,glycan array binding signal (z-score),[30],-0.579
same,glycan array binding signal (z-score),[31],0.002
same,glycan array binding signal (z-score),[32],0.089
same,glycan array binding signal (z-score),[33],0.244
same,glycan array binding signal (z-score),[34],-0.781
same,glycan array binding signal (z-score),[35],-0.481
same,glycan array binding signal (z-score),[36],-0.657
same,glycan array binding signal (z-score),[37],-0.411
same,glycan array binding signal (z-score),[38],-0.61
same,glycan array binding signal (z-score),[39],-0.293
same,glycan array binding signal (z-score),[40],-0.179
same,glycan array binding signal (z-score),[41],-0.586
same,glycan array binding signal (z-score),[42],-0.622
same,glycan array binding signal (z-score),[43],-0.465
same,glycan array binding signal (z-score),[44],-0.233
same,glycan array binding signal (z-score),[45],0.599
